Experimental data as given in the supplement of paper PMC3334620.
Whole data set: some 33,000 sequences, median “E-score (-0.5 to 0.5)” near -0.032, cut for the highest 2% near 0.36. This is one part of the list.

Target: T1, Sko1 (UniProt Q02100)
T1 sequence: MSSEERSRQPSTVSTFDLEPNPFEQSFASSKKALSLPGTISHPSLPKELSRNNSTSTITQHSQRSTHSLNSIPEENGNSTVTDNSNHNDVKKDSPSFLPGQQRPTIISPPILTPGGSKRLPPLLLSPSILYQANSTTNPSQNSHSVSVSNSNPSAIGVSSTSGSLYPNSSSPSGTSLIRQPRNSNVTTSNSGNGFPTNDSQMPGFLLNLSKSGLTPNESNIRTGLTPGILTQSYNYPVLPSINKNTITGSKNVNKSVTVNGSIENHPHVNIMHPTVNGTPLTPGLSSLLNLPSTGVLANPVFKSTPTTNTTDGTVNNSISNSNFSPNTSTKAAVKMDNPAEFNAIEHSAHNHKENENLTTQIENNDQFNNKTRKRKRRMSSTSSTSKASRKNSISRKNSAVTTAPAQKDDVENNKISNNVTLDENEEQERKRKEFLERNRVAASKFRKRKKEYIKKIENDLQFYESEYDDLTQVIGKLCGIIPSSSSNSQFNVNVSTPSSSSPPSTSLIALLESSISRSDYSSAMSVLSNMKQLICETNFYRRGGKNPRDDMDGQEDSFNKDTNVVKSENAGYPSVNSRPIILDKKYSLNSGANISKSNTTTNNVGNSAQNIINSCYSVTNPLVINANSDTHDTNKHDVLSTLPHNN
Assay: PBM E-score (8-mer binding enrichment) (E-score (-0.5 to 0.5)); higher = stronger / more preferred TF binding; most listed sequences are background and not binding sites
Conditions: protein concentration: 200 nM; construct: GST-full length
In short: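 Bound GST-tagged yeast transcription factors, applied at about 100-200 nM to double-stranded universal all-10-mer Agilent arrays, were detected with fluorescent anti-GST. Scans were normalised with masliner. A modified Wilcoxon-Mann-Whitney statistic, the E-score, was assigned to each ungapped eight-base word pooled with its reverse complement by the Universal PBM Analysis Suite.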

Sequence | PBM E-score
AGGGTGCA | -0.247
CTTTCTGA | 0.0713
AACTTGAA | 0.079
AAATCACC | 0.124
AATCCGCT | -0.245
GCACAGGA | -0.241
GTCAAAGA | 0.22
GGATATAC | 0.116
TACGTAGA | 0.452
ACAGCTCA | -0.109
CATTCCGC | -0.199
ATAGACAG | -0.0599
CTCGGTTC | -0.33
AAGTATTC | 0.0857
AGAGTGCT | 0.00873
AACGCCTT | -0.209
CAGCTCAA | -0.134
ATTTGGCC | -0.00792
CGGCGTTA | -0.0476
ATCATAAT | 0.294
ATTGAGCC | -0.0846
CATAAAGG | -0.0363
CAGTTTGC | -0.19
CCTCCTAA | -0.121
CAGTCTCC | -0.165

Sequence | PBM E-score
GATAGACC | -0.0875
ATAAAAAC | 0.274
CACCAGGC | -0.19
CACCTAAG | 0.0413
TAAGTAGA | 0.0586
TATAAGGA | 0.112
CCCTTCAG | -0.211
CACCGATA | -0.15
ATCTCAGA | 0.00298
AGTTATGG | 0.0756
ATGATGCC | 0.244
ATTCACGC | 0.112
GATGTACC | 0.169
GAAGCCCA | -0.19
AACCGGGC | -0.197
GACTACGA | 0.0532
AGCTGTAA | 0.111
CCGGTGCA | -0.307
TATGGTCA | -0.0135
CCGGCAGG | -0.21
CCTTTGAG | -0.246
CTCATATC | -0.0756
AGTTTAAA | 0.0848
ATGAGGGA | -0.0866
AGATGTTG | -0.0881

Sequence | PBM E-score
ACAGTTAT | -0.0847
AGCTAGCA | -0.152
AGGTCGGG | -0.181
GACGCTCA | 0.0162
GCAGAAGC | -0.0652
GACCCCAA | -0.191
AATGCAGT | -0.00733
CCATGTGC | -0.00035
AGCCAGGG | -0.174
ACTGGATG | -0.0786
AGCCTCTC | -0.308
CAGCAGCG | -0.213
CCTGCGAC | -0.19
CCACACCG | -0.196
CGTAAGCA | 0.285
AGATAAAC | 0.077
CAGTCCAG | -0.226
CGGGCCAG | -0.256
CTTGGGGC | -0.23
AAGACATG | 0.139
CAGCGCAA | -0.044
GGCCCAAA | -0.258
ACTGGACC | -0.119
ATCATGAA | 0.126
GAATGTGC | 0.0492

Sequence | PBM E-score
AAAGTCAG | -0.211
CGCATTAG | 0.005
CTTACGAC | 0.16
AAAACAAG | 0.0101
CGTGCGAG | 0.08
CAAACTGC | -0.044
CAGTGTGG | -0.203
AGCACGTA | 0.406
GCCCCTAA | -0.235
ACGCGTAC | 0.307
GATACGCC | 0.0708
AAGCGCTA | 0.0442
AATTAACT | 0.199
AAGCGTAT | 0.107
CTCTACGC | 0.0479
CAGCCTAC | -0.0628
CCTCGCCG | -0.442
CGCGGGCA | -0.0346
ACGGGCGC | -0.241
ATATGCTG | -0.00443
CAAGATGC | 0.106
GCAATACA | 0.182
CCCCCATA | -0.262
GCCCGTTA | -0.152
CAAGTATC | -0.0706

Sequence | PBM E-score
ACATCGCA | -0.0757
CATCAGGC | -0.0323
GCTTCGTA | 0.125
ATAAAATC | 0.0454
AGTCACTA | 0.0867
ACGAGGTG | 0.0729
TCACATAA | 0.304
ACAATGTA | 0.111
GCCCGAGC | -0.152
ATCGTTAC | 0.139
GAGAGTAA | -0.011
ATAGGTTG | -0.119
ACCACGCT | -0.0849
CACCTGTA | -0.287
GGAGGCAC | -0.118
ACTTACCG | 0.00307
ATACAAAG | 0.125
ACACAACG | 0.194
AATCATTC | 0.182
ATCGGTGC | 0.105
ACTAGACC | 0.00084
AACTCGCC | -0.048
CGAGGGCA | -0.152
GCACACGA | 0.0509
ATCGCTAA | 0.111

Sequence | PBM E-score
AGACCGAA | 0.0258
GAATAGAA | 0.0233
CTGCTAAG | -0.194
GATATCGC | 0.0249
ACGCATGG | 0.111
ACGTACGG | 0.38
GTGGGTCA | -0.122
AAGGCATA | 0.00229
AAGGCAGT | -0.0544
AAGCCGTA | 0.103
ATAAGCCC | -0.226
GGATACGA | 0.0523
CCCCAAAA | 0.00959
ATATACGG | 0.219
CATCTAGG | 4e-05
CCTAATAA | 0.115
CTTCGTAA | 0.287
ATGATAAA | 0.235
CCTCAGGA | -0.282
ACTCTTTC | -0.13
ATCTAGAA | 0.0885
CCTTCTGA | -0.0197
AAAACCCA | 0.097
GCTCGCAA | 0.0353
ACTGGGTG | -0.0498

Sequence | PBM E-score
ACTCGATG | 0.0907
CAGGCCTG | -0.282
CGCAGGGA | -0.165
AGTGTAGA | -0.169
TACCCCTA | -0.102
CGCAAGCG | 0.00208
GGTCGGAC | -0.209
ATATCAAA | 0.0923
TAGATCTA | 0.187
AGCCGTTC | -0.271
CTGCATTC | 0.0642
AAGTCGTC | 0.161
CAACACAC | 0.154
GACAGAGC | -0.236
AAAAAGGG | -0.145
AGGGAAAA | -0.00111
AGAGGGTC | -0.258
AACTGGGA | -0.188
GCTACCCA | -0.253
GCTGGCCA | -0.229
ACAGACAA | 0.162
CCTACTTA | -0.00728
AGACGGGC | -0.247
AAGTCTCT | -0.165
GAGCTCAC | -0.192

Sequence | PBM E-score
CAATGTGA | 0.243
ATCTACAG | -0.0684
TATGCGGA | -0.0556
ACGGATTC | -0.087
CGCACGCA | 0.211
AGCTCGGA | -0.295
CAGGGACA | -0.103
GTATTTCA | 0.239
CACCCCAC | 0.0181
AGTGTTGG | -0.143
TAGGAAGA | -0.185
GAGGCGCC | -0.117
CGTTGTTA | 0.162
CAACTACG | 0.31
CGAGTACG | 0.226
CGCTGGGA | -0.283
AAATATCG | 0.196
TCTGTAAA | -0.0019
ACCAAGGT | -0.0516
ACCATCCT | -0.0485
CTGAGGCC | -0.213
TGCTAGAA | 0.0276
GTCTCCTA | 0.0919
GATCGGAA | -0.139
ATTAACTG | 0.272

Sequence | PBM E-score
GATAATGC | 0.026
ACAAAGAA | 0.264
GAATAAGC | -0.0229
AATCAGCT | 0.165
CGTGACGC | 0.422
CAAACCCC | -0.191
AACAGCGT | 0.0503
CGAGGCAA | -0.12
CGAATAAA | 0.16
TCACTCGA | 0.0405
ATCGGTAA | 0.0669
AGGCACAG | -0.128
AGCCTTGA | -0.062
AGTTGCTA | 0.175
CAGACACA | 0.112
CTAGGGTC | -0.163
CACGGGCG | -0.325
AACACCAT | 0.0371
ACAAAAAT | 0.218
